The source gives no read counts; variants with many changes may rest on few reads.

The labels stand for the following.
B1: LINE1-full (parent)
chain: UACGUAGGUGGUUUUCCCCUGAUAGUGCUAAGGGGGCCUGGAAGUUUGGACUGGGCAGAGCUCAACACAGCGUGGCAAAGUGGCUGUGGCUAGACUGCCUCUCUGGAUUCCUCGUCACUCAGCAGGGCAUCUCUGAGAGAAAUGCC

The variants in this data set derive from B1. The experiment in a line: self-cleavage, relative activity (ratio to wild type); higher = more cleavage; in vitro, sequencing; the parent is a self-cleaving ribozyme.
On to C18U G36C U52G A140G, for which the self-cleavage was determined as 0.4.
For U15C U87C U119C G125A A142G, the self-cleavage was found to be 0.5.
Take C17U G55A U96A: the self-cleavage is 0.06.
To U15C U119A U134C belongs 0.76.
On to U15C G75C U85C U115G, for which the self-cleavage stood at 0.
In the case of C17U U46A U132C, the self-cleavage is 0.92.
Take C19U U20A U39C A57G U62C A78G U143C: the self-cleavage amounted to 0.
As to U15C C37G G89A, the self-cleavage worked out at 0.09.
Turning to C16U U20A A77C A121G U130A, the self-cleavage was 2.55.
Under U15C U52C U112C A124G stands 0.88; under U15C U52A U62A U100C A142G, 0.05.
Turning to U15C A65G U119A, the self-cleavage came out at 0.
As for U15C C76U A136G, the self-cleavage worked out at 2.92.
To U15C G44A U47C U100A C146U belongs 1.38; to U15C U39A A79C U81C G105A, 1.56; to C17U A69C U87C A124U A142U, 0.21.
To C18U U62C A129U belongs 0.06; to U20A A22G A117U A140G, 1.43; to C19A U45C A65G A92G U143C, 0.
Turning to C19U C84U A140U, the self-cleavage came out at 0.05.
In the case of U15C G105A A107U, the self-cleavage was found to be 2.44.
Regarding U15C A77U A94G U132C U134A A138G, the self-cleavage turned out to be 0.22.
As for C19U A30U A43G A107U, the self-cleavage came to 1.05.
Under U15C A65G G82A A117U stands 0.04; under U15C U62A C71U A141G, 0.07; under U15C U85C U109A, 0.24.
Turning to C19U A117G U134C, the self-cleavage was 1.06.
In the case of U15C G40A A64G A142G, the self-cleavage was determined as 0.24.
In the case of U15C U96A A107U, the self-cleavage came to 0.12.
Under C17U A107U A138U stands 1.6.
Under U15G U87C U108C U134C stands 0.77.
Under C18U A50G A77U stands 0.58.
C19U G33A U73A: the self-cleavage was found to be 0.95.
On to C18U U46C A136U, for which the self-cleavage came out at 1.08.
On to U15C U23C A43G U102A G122A U130C, for which the self-cleavage came to 1.92.
For U15C U26C U47C G58U, the self-cleavage amounted to 0.03.
Consider C18U U73G A94G U102C, for which the self-cleavage is 0.
Take U15C U47C A50U U112A: the self-cleavage was 0.7.
As to U15C U20A A59G U102A, the self-cleavage worked out at 0.18.
Take U15C A59G A77G: the self-cleavage was determined as 0.18.
Regarding U15C U46A U134C, the self-cleavage worked out at 1.24.
For U15C U130C U143A, the self-cleavage came out at 2.51.
For C16U U96C U112C, the self-cleavage was determined as 0.07.
Take U15C U20C G55U A141G: the self-cleavage came out at 0.2.
For U15C U20A U52A U85A U119C A136G, the self-cleavage amounted to 0.15.
On to C16U U23C C113G U115A, for which the self-cleavage is 1.49.
Take U15C G36A C61U U100C: the self-cleavage is 0.02.
As for U15C A77G A136G, the self-cleavage came to 1.91.
As for U15C A57U A59U U73C A140G, the self-cleavage is 0.03.
Turning to U15C U85C U134A A141U, the self-cleavage was 0.11.
Take U15C G36A A142G: the self-cleavage stood at 0.54.
In the case of U15C U47A G126A, the self-cleavage was determined as 1.77.
In the case of U15C G25A G70A, the self-cleavage came out at 0.18.
As to C19U C118U U130C, the self-cleavage was 1.81.
To C19U G105A U119C belongs 1.3; to U15C A59U U73A, 0.75.
Take C18U A117U A138G: the self-cleavage was 1.68.
C19U U109A A138U: the self-cleavage is 1.75.
To U15C C84A U112C belongs 0.19; to C19U U85C U115C C131A, 0.1.
Turning to C19U A22G G58A U104A, the self-cleavage amounted to 0.
Take C18U U45C U91C: the self-cleavage is 0.9.
With U15C U26G U39C, the self-cleavage came to 0.32.
With C19U U96C U115C, the self-cleavage turned out to be 0.54.
Consider U15C U45C G55C, for which the self-cleavage turned out to be 0.07.
U15C U23A U26A C37U G54U U91C: the self-cleavage was 0.15.
On to C17G A31U U39C G60A U62C, for which the self-cleavage worked out at 0.27.
For the variant C19A A22G A121G, the self-cleavage is 0.25.
For U15C U115A A121G A124U, the self-cleavage worked out at 1.96.
With U15C U46C A136G, the self-cleavage was found to be 1.84.
On to U15C U29C U100C, for which the self-cleavage was determined as 1.53.
To U15C U29A A136U A138G belongs 1.35; to U15C C16U U52A, 1.18; to U15C U47G C99U, 0.92.
Regarding C19U C133A A141G, the self-cleavage was found to be 1.23.
Take C19A U29C A138G: the self-cleavage stood at 2.68.
U15C U20C U112C: the self-cleavage came out at 1.
To C19U A30C A59U U91C belongs 0.27.
Regarding U15C U132A A140G, the self-cleavage is 2.72.
For C18G C51U U109C A121U, the self-cleavage was determined as 2.15.
With U15C A69U A121U, the self-cleavage came out at 0.13.
To C17U A129G U132C U134C belongs 2.16.
To U15C A124G U130A A136G belongs 2.71.
Under U15C A65U C103G stands 0.11; under C16U G35C U119A, 0.36; under U15C U62C U73A, 0.14.
Regarding C18U U73A U100A, the self-cleavage was 1.07.
As for U15C A94G U143C, the self-cleavage was determined as 0.32.
U15C U100A A141G: the self-cleavage is 1.07.
With U15C U20A U46C A92U G106A A140G, the self-cleavage is 0.78.
In the case of U15C G35A U81C, the self-cleavage came to 1.44.
On to U15C G44A U100C U115A A142G U143C, for which the self-cleavage amounted to 2.63.
Consider C17U G36A U47C, for which the self-cleavage was 1.05.
As for C19U A69C U87A, the self-cleavage was 0.08.
To U20A A50G A69U A141G belongs 0.05.
To C16U G36C U115C A124U A138G belongs 1.41; to U15C C76U U130C, 2.64; to U15C U102A G126A A138G, 1.6.
For the variant U15C C51U A121G U143C, the self-cleavage was 1.43.
For the variant C16U A24G U134A, the self-cleavage stood at 0.63.
Regarding C16U U52C A77G A107G, the self-cleavage was 2.3.
With C17U A43G G49A, the self-cleavage came to 0.36.
To C19U G89A U134C belongs 0; to U15C U46C A79G U91A C145A, 1.2; to U15C G54A U100A A136G, 0.19.
Under U15C U73A A79G A138G stands 2.57.
C19U U26C A30G: the self-cleavage turned out to be 1.53.
Regarding U15C C71A G125U A142G, the self-cleavage worked out at 0.09.
With C16U A50G G53A A92G, the self-cleavage came out at 0.06.
Turning to U15C U26C U130C A142G, the self-cleavage is 1.07.
On to U15C C28U A31G U96A C145U, for which the self-cleavage was 0.15.
As to C18A G54U A77G A92U C111U, the self-cleavage was 0.24.
To U15C A140U A142G belongs 0.64; to U15C A121U U134C, 1.66; to C18U U26C A129G U143A, 1.34.
To C17U A24C A140G belongs 0; to C19U U52C U100C, 0.88; to U15G U26C A57U A67G, 0.
Regarding U15G U26C A124U, the self-cleavage is 1.26.
With U15C U39A U100C, the self-cleavage came out at 0.24.
Under U15C A79G U91A stands 1.33.
Consider U15C U20G U52C U119A U132C, for which the self-cleavage amounted to 1.45.
C17U G36U A43U A107G: the self-cleavage was determined as 0.71.
For C19U A22G U108C, the self-cleavage is 0.71.
With C19U U132C A138G, the self-cleavage worked out at 1.47.
For U15C G89A G126A, the self-cleavage worked out at 0.05.
For U15C U130C U134A, the self-cleavage amounted to 1.91.
On to C18U A78G U132C, for which the self-cleavage was 0.74.
Under U15C G55C U62C stands 0.06; under U15C A69G U134G, 2.04; under C17A G70A C123G, 0.1.
As for U15C A64U A129G A140G, the self-cleavage came to 0.76.
To C19U A22G A42G belongs 1.21.
For the variant C17U C56U G75A A79G U104C, the self-cleavage amounted to 0.
To U15C A121U U130A belongs 1.44.
With C19U U52C A138G, the self-cleavage was found to be 0.
Under U15C U73C U100A stands 1.76; under U15C G40A G114C A129C, 2; under U15C G54A U108G A129U A140G A141G, 0.13.
Consider U15C U47A G54A C76U, for which the self-cleavage came to 0.79.
With U15C U109C U115C, the self-cleavage was determined as 1.08.
With U15C U20A A121U, the self-cleavage worked out at 1.6.
To U15C U20G A92U U104C U109A belongs 1.64; to U15C A69G G75A, 0.23; to U15C G33U A94U, 0.21.
Turning to C18U U26A U45C U115C, the self-cleavage worked out at 0.84.
For C17U G35A A124G A140G, the self-cleavage came to 0.2.
To U15C U45C A67U A129G belongs 0.3; to C19A A129G A141G, 0.77; to U15C U62C A79U A94G, 0.
As for C17U A22U U26C A67G A78U, the self-cleavage came out at 0.53.
For U15C U46C G72A C98U A136G, the self-cleavage was found to be 0.83.
Turning to C18A A31C A129G A140G A141G, the self-cleavage came out at 0.57.
In the case of C16U A24U G36A U46C U62C U73A U134A, the self-cleavage came out at 0.02.
For the variant U15C U23C A107G U119C, the self-cleavage was 0.34.
Regarding U15C A59U U115C, the self-cleavage worked out at 0.99.
Take C18U G58U U100C: the self-cleavage worked out at 0.09.
Take C18A U20C U39A U47A U87C U96A U112C: the self-cleavage worked out at 0.22.
Turning to U15C U20A A30G, the self-cleavage came out at 1.45.
On to U15G U73C G86U, for which the self-cleavage was 0.18.
Turning to U15C A64G A67G, the self-cleavage was determined as 0.
On to U20A A30U A67G U85C U132C, for which the self-cleavage was determined as 0.38.
For the variant C19U U45C A69G, the self-cleavage worked out at 1.39.
Under U15C C19U A57U A65G U104A stands 0.02; under U15C A69U U73C A136G, 0.
With U15C U29C A78U U134A, the self-cleavage is 1.69.
Regarding U15C A77U A79G U115C, the self-cleavage was 2.84.

The values above are taken from the RNAGym collection of RNA variant scans (doi:10.7554/elife.90254).
